Reference: PubChem BioAssay AID624296 (National Center for Advancing Translational Sciences (NCATS), 2012)
In all, about 350,000 compounds went through this assay and about 9,900 (2.8%) were called active. Inconclusive results, whose numbers are uncertain, are shown with a selection of clear calls. The call rests on the fitted dose curve; in most records, active means well fitted activation curve with a large enough effect; inconclusive means small, poorly fitted or top-dose-only effect; inactive means no such curve, though single readings can be large or run the other way. Potencies of inconclusive entries are left out as doubtful fits.

Test: A quantitative high throughput screen for small molecules that induce DNA re-replication in MCF 10a normal breast cells. Further: nearly all actives have a fitted effect of over 50% in size. On activity, positive = re-replication: % of control where 0% means no effect.
Conditions: MCF 10A DNA re-replication, Hoechst nuclear intensity, 48 h; activity, positive = re-replication: at 46.1 µM (top of the series)
Potency means the concentration at half of the fitted maximal effect; tags describe the fitted curve by direction and shape.

Row | Compound | Potency | activity, positive = re-replication
1 | O=C(NCCC1=CCCCC1)c1ccc2c(c1)N(Cc1ccccc1)C(=O)CS2 | inconclusive [activator, partial curve, poor fit] | –
2 | O=C(NCc1ccccn1)C1CC(c2ccc(Cl)c(Cl)c2)=NO1 (stereo unspecified) | active: 11.2 µM | –
3 | COc1ccccc1-n1ccnc(SCC(=O)NCc2ccccc2Cl)c1=O | – | inactive: 5.3%
4 | COC(=O)/C=C/c1ccsc1NC(C)=O | – | inactive: 1.16%
5 | O=C(Nc1ccccc1Br)c1ccccc1-c1ccccc1 | active: 13 µM | –
6 | COc1ccc(C2c3c(ncn(CCN4CCOCC4)c3=N)Oc3ccc4ccccc4c32)cc1OC (stereo unspecified) | inconclusive [activator, single point] | –
7 | Cc1cc(Br)cc(C)c1OCCCCN(C)C | inconclusive [activator, full curve, poor fit] | –
8 | COCCNC(=O)C(OC(=O)CC1Sc2ccccc2NC1=O)c1ccccc1 (stereo unspecified) | – | inactive: 0.509%
9 | Cc1cccc2cc(CN(CCN(C)C)C(=S)Nc3ccccc3)c(=O)[nH]c12 | – | inactive: 7.79%
10 | COc1cccc(Cn2c(=O)c3ccccc3n3nc(C)cc23)c1 | inconclusive [activator, partial curve, poor fit] | –
11 | CCOCCCn1c(SCC(=O)NC(C)(C)C)nc2ccccc2c1=O | – | inactive: 7.9%
12 | COc1cccc(CN(C(=O)/C=C/c2ccco2)C2CCS(=O)(=O)C2)c1 (stereo unspecified) | – | inactive: -1.57%
13 | COc1cc(/C=C2/C(=O)ON=C2C)ccc1OCc1ccccc1F | inconclusive [activator, partial curve, poor fit] | –
14 | CCOc1ccc(N(CC(=O)NCc2ccc(Cl)cc2)S(=O)(=O)c2ccccc2)cc1 | – | inactive: 1.67%
15 | N/C(=N\c1nc2ccccc2o1)NC(=O)/C=C/c1ccccc1 | inconclusive [activator, single point] | –
16 | O=C1CCC(=O)N1OCCOc1ccccc1 | inconclusive [activator, full curve, poor fit] | –
17 | COc1ccc(CNCC(=O)Nc2ccccc2-n2cccc2)cc1 | inconclusive [activator, full curve] | –
18 | O=C(COc1ccc(Cl)cc1Cl)Nc1cccc(-c2ccc(N3CCOCC3)nn2)c1 | – | inactive: 1.59%
19 | O=C(CCCCn1c(=O)c2ccccc2n(Cc2ccc(F)cc2)c1=O)NCc1ccco1 | active: 18.4 µM | –
20 | FC(F)(F)c1cc(CO[C@@H]2CCCN[C@@H]2c2ccccc2)cc(C(F)(F)F)c1 | inconclusive [activator, single point] | –
21 | COc1cc(C2/C(=C(\O)c3ccc4c(c3)CC(C)O4)C(=O)C(=O)N2CCCn2ccnc2)ccc1O (stereo unspecified) | inconclusive [activator, full curve, poor fit] | –
22 | O=C(CSc1nnnn1C1CCCCC1)Nc1ccccc1F | – | inactive: 1.65%
23 | Cc1cc(C)nc(Sc2ncnc(N)c2[N+](=O)[O-])n1 | active: 20.6 µM | –
24 | COc1cc(OC)c(C(=O)C=Cc2ccc(OC)c(OC)c2)c(OC)c1 | – | inactive: 169%

Row | Compound | Potency | activity, positive = re-replication
25 | N#Cc1cc2c(nc1SCC(=O)Nc1sc3c(c1C#N)CCC3)CCC2 | inconclusive [activator, single point] | –
26 | c1cc2c(cc1C1CCCCC1)c1c3n2CCCNC3CCC1 (stereo unspecified) | inconclusive [activator, partial curve, poor fit] | –
27 | CCC(NC(=S)NCc1ccccc1)C(=O)O (stereo unspecified) | inconclusive [activator, partial curve, poor fit] | –
28 | COc1cccc(-c2ccc3c(N)c(C(=O)NC4CC4)sc3n2)c1 | inconclusive [activator, single point] | –
29 | O/N=C/c1cc(Br)ccc1OCc1cccc(F)c1 | inconclusive [activator, partial curve, poor fit] | –
30 | Cc1nc2c3ccccc3nc(NNC(=O)CCC(=O)NCCN3CCN(c4ccccc4)CC3)n2n1 | – | inactive: -1.78%
31 | CCOc1ccc(Cl)cc1S(=O)(=O)N1CCN(c2ccc(F)cc2)CC1 | inconclusive [activator, full curve, poor fit] | –
32 | O=C(COC(=O)c1ccccc1-n1cnnn1)c1ccccc1 | inconclusive [activator, single point] | –
33 | O=C(Nc1ccc(F)cc1)c1ccccc1Oc1ccc(C(F)(F)F)cc1[N+](=O)[O-] | inconclusive [activator, single point] | –
34 | Cc1cccc(NS(=O)(=O)c2ccc(C)c(C(=O)NCc3cccnc3)c2)c1 | – | inactive: 6.28%
35 | Cc1ccc(S(=O)(=O)CC(N)=O)cc1 | inconclusive [activator, single point] | –
36 | COc1ccccc1C(=O)NCC(=O)NCCSc1ccc(Br)cc1 | – | inactive: -0.726%
37 | Cc1cccc(OCCCCc2c(C)n[nH]c2C)c1 | inconclusive [activator, single point] | –
38 | CCOc1ccc(NCc2nc3ccccc3n2CCOc2ccccc2)cc1 | inconclusive [activator, single point] | –
39 | O=C(Nc1ccccc1OC(=O)c1ccc(Cl)cc1)c1ccc(Cl)cc1 | inconclusive [activator, partial curve, poor fit] | –
40 | CCOc1cc(/C=N/Nc2cc(C)nc(-n3nc(C)cc3C)n2)ccc1O | inconclusive [activator, partial curve, poor fit] | –
41 | CCC(C)NC(=O)CN(c1ccc(OC)cc1)S(=O)(=O)c1ccc(NC(C)=O)cc1 (stereo unspecified) | inconclusive [activator, partial curve, poor fit] | –
42 | CCOc1ccc(C(=O)NCC(=O)OCC(=O)N2CCCCC2)cc1 | inconclusive [activator, single point] | –
43 | COc1cccc(C(=O)NCC2CCN(c3ccc(S(=O)(=O)N4CCOCC4)cc3)CC2)c1 | inconclusive [activator, partial curve, poor fit] | –
44 | CCOC(=O)C(C)(C)NS(=O)(=O)c1ccc(Cl)c([N+](=O)[O-])c1 | inconclusive [activator, single point] | –
45 | COc1cccc(Cn2nnc(C(=O)Nc3cc(Cl)ccc3OC)c2N)c1 | inconclusive [activator, partial curve, poor fit] | –
46 | CCn1c2ccccc2c2nnc(SCc3ccc(C(=O)OC)o3)nc21 | – | inactive: -0.177%
47 | Cc1ccc(NC(=O)CSc2nnc(NC(=O)c3ccco3)s2)cc1 | inconclusive [activator, single point] | –
48 | Nc1nc(Br)c2c(F)cccc2c1-c1ccc(Cl)cc1 | active: 7.31 µM | –

Row | Compound | Potency | activity, positive = re-replication
49 | O=C(Nn1cc(C(=O)N2CCN(c3ccccc3F)CC2)c2ccccc2c1=O)c1cnccn1 | inconclusive [activator, partial curve, poor fit] | –
50 | CSc1nnc(NC(=O)c2nc(S(=O)(=O)Cc3ccccc3F)ncc2Cl)s1 | inconclusive [activator, single point] | –
51 | Cc1c(Cc2ccccc2)c(=O)oc2cc(O)ccc12 | – | inactive: 11.4%
52 | O=C(O)CCCN1C(=O)/C(=C\C(Cl)=C\c2ccccc2)SC1=S | inconclusive [activator, full curve, poor fit] | –
53 | O=S(=O)(CCc1nc2ccccc2s1)c1ccc2ccccc2c1 | inconclusive [activator, partial curve, poor fit] | –
54 | CCOC(=O)Cn1nnnc1CN(CCc1ccccc1)Cc1cc2cc(CC)ccc2[nH]c1=O | inconclusive [activator, partial curve, poor fit] | –
55 | Cc1ccc(-c2cc(C(F)(F)F)c(C#N)c(=O)[nH]2)cc1 | inconclusive [activator, single point] | –
56 | O=C(N/N=C/c1c(Cl)cccc1Cl)C(=O)NC1CC1 | – | inactive: -0.368%
57 | COc1ccc(C(=O)Oc2c(CN3CCOCC3)cc(Cl)c3cccnc23)cc1 | inconclusive [activator, single point] | –
58 | CSCCC(=O)Nc1ccc(C(C)=O)cc1 | – | inactive: 11.7%
59 | CC(=O)c1ccc(N2CCN(C(=O)CCCc3nc4ccccc4s3)CC2)cc1 | active: 18.4 µM | –
60 | Cc1ccc(S(=O)(=O)/N=C(/NC(=S)Nc2ccccc2)c2ccccc2)cc1 | – | inactive: -3.13%
61 | Cn1cc(C(CC(=O)O)C(=O)O)c2ccccc21 (stereo unspecified) | inconclusive [activator, partial curve] | –
62 | N#C/C(C(=O)Nc1ccc(Cl)cc1)=C(/S)Nc1ccccc1 | inconclusive [activator, single point] | –
63 | CC1(C)N=C(SCC(=O)Nc2ccccc2)C(c2ccc(Cl)cc2)=N1 | inconclusive [activator, single point] | –
64 | COc1cc(S(=O)(=O)NCCCN2CCOCC2)ccc1Cl | – | inactive: 4.96%
65 | COc1cccc(S(=O)(=O)Nc2ccc(C(=O)Nc3ccncc3)cc2)c1 | inconclusive [activator, full curve, poor fit] | –
66 | Cc1sc2ncnc(Nc3ccccc3)c2c1C | – | inactive: 28.7%
67 | CN(C)S(=O)(=O)c1ccc(Cl)c(NC(=O)CN2C(=O)NC(C)(C3CC3)C2=O)c1 (stereo unspecified) | inconclusive [activator, single point] | –
68 | Cc1ccc(C)c2[nH]c(=O)c(CN(Cc3nnnn3C3CCCCC3)CC3CCCO3)cc12 (stereo unspecified) | inconclusive [activator, single point] | –
69 | CCCCCCC(C)n1[nH]c(=O)c2c(C)cc(C)nc21 (stereo unspecified) | inconclusive [activator, partial curve] | –
70 | COc1ccc2c(c1)CCC1=C2NC(=S)NC1c1ccc(N(C)C)cc1 (stereo unspecified) | active: 20.6 µM | –
71 | Cc1ccc2nc(-c3ccc(NS(=O)(=O)c4c(C)n(C)c(=O)n(C)c4=O)cc3)sc2c1 | active: 7.31 µM | –
